# Laboratory results as given in ChEMBL document CHEMBL4888484, “Replenishing the malaria drug discovery pipeline: Screening and hit evaluation of the MMV Hit Generation Library 1 (HGL1) against asexual blood stage Plasmodium falciparum ,using a nano luciferase reporter read-out” (2022).
# Among all 150,000 compounds or so, about 540 (0.36%) showed an effect of 50% or more. This is one part of the list.
# Tested on: Plasmodium falciparum
# Test: Primary screen in NF54 nanoGlo assay, in single point, at 2uM, 72h; a lower Z score goes with more inhibition
# Assay type: functional, Erythrocyte
# Conditions: timepoint 72 hour
Compound,% Inhibition,Z score
CO[C@@]12CC[C@@H](OCC3CC3)C[C@@H]1N(Cc1c(C)cnn1C)CC2,-9%,1.49
CCc1noc(NC(C)=O)c1-c1ccc(C)c(S(=O)(=O)NC2CCCCC2)c1,-10%,1.38
Cc1cnccc1CN1CCC2(CCC(=O)N([C@H]3CC[C@H](O)CC3)C2)CC1,6%,-0.81
COc1ccc(-c2cc(C(=O)Nc3ccc(F)cc3)n3nc(C(C)(C)C)cc3n2)cc1,4%,-0.52
CC(C)(CO)NC(=O)c1cncc(-c2ccc3c(c2)CCO3)c1,29%,-3.95
CN(C)CCN(CC1CCCCC1)S(=O)(=O)c1cnn(C)c1,2%,-0.28
CCn1c(C)c(-c2nc(C3CC3)no2)c(S(=O)(=O)Nc2ccccc2F)c1C,-3%,0.43
c1nn2cnnc2cc1N1CCN(Cc2csc3c2CCCC3)CC1,-1%,0.08
O=C1NC2(CCC2)C(=O)N1Cc1nc(Cc2ccccc2)no1,-6%,0.84
CN1CCCN(S(=O)(=O)c2ccccc2Cl)c2ccccc21,3%,-0.32
Cc1ccc(C)c(NC(=O)C2C(=O)N[C@]34CCCCC3C2c2ccccc2O4)c1 (stereo partly specified),3%,-0.42
O=C(NCc1cncc(-c2ccsc2)c1)Nc1ccccc1C(F)(F)F,-8%,1.22
Cc1oc(-c2nc(CCCc3ccccc3)no2)cc1S(N)(=O)=O,32%,-3.65
CCCOc1ccc(-c2nsc(NC(=O)Cc3ccc(Cl)cc3)n2)cc1OC,11%,-1.75
COc1ccc(-c2cccc3c(N)ccnc23)cn1,-11%,1.87
O=C(O)[C@H]1CCN(C(=O)c2cccnc2Oc2cccc(Br)c2)C1,-17%,1.66
COCCN(CC(F)(F)F)C(=O)c1scnc1COC,-1%,0.16
CCn1nc(C)cc1C(=O)Nc1cc(C2CC2)n[nH]1,-4%,0.74
Cc1nn(C)c(C)c1CCC(=O)N1CCC[C@@]2(CCC(=O)N(CCO)C2)C1,-3%,0.53
CO[C@H]1CCCN(C(=O)Nc2ccncc2F)C1,-3%,0.44
CCC1(CC)CN(C(=O)c2ccn(C)c(=O)c2)c2ccccc21,34%,-1.19
O=C(Cn1c2c(c(=O)n3nc(-c4ccccc4)nc13)CCC2)Nc1ccc(F)cc1,-8%,0.98
CCN(CC)c1onc(-c2ccccc2)c1CN(CC1CC1)C(=O)c1ccccc1F,10%,-1.21
COCCCN1CC[C@H](CNC(=O)c2c(C)c3cc(F)ccc3n2C)C1,-7%,1.14
C[C@H](O)c1onc(-c2cccs2)c1C(=O)NCc1ccncc1,-3%,0.5
O=C(CCC1CC1)N1CC[C@H]2[C@H](CCC(=O)N2CCc2c[nH]cn2)C1,-4%,0.77
O=C(NCCC(c1ccccc1)c1ccccc1)c1cc2n(n1)CCN(Cc1cccc(F)c1)C2=O,-13%,1.84

Compound,% Inhibition,Z score
CC(=O)N1CCC[C@H]1C(=O)N1CCOc2ccc(CN3CCN(C)C[C@@H]3c3ccccc3)cc2C1,19%,-2.44
CC[C@@H](C(=O)NCCc1c(C)n[nH]c1C)n1cccn1,0%,0.08
O=C(COC[C@H]1CCCO1)Nc1cnc2ccnn2c1,-10%,1.14
CCc1nc(C)c(CN2CCCC[C@@H]2CCOC)[nH]1,-13%,1.2
O=C(N1CCNCC1)C1(Cc2ccccc2)CC2CCC1C2 (stereo unspecified),-33%,3.89
CCC(O)(C(=O)N1CCC2(CNC(=O)C2)C1)c1cccc(Cl)c1 (stereo unspecified),-12%,1.4
N#Cc1c(F)cccc1N1CC[C@H](S(=O)(=O)N2CCCC2)C1,1%,-0.07
O=C1CC[C@H](C(=O)Nc2ccc(F)cc2Nc2ccccc2F)N1,-6%,0.71
CCN(c1ccncc1)S(=O)(=O)c1cc(C)sc1C,-13%,2.02
CCN1CCN(C(=O)[C@@H]2CC(c3ccccc3)=NO2)CC1,-1%,0.1
COc1ccc(CCn2c(N)c(-c3nc4ccccc4s3)c3nc(C#N)c(C#N)nc32)cc1OC,-5%,0.86
CCN(CC)c1ccc(NS(=O)(=O)N(C)C)cn1,-9%,1.23
COCCN1CC2(CCN(C(=O)c3cc(F)ccc3F)CC2)[C@H]1c1ccncc1,-13%,2.28
CCOc1ccc(NC(=O)N2CCC3(CC2)C(=O)N(CC(=O)N2CCCCC2)CN3c2ccccc2)cc1,0%,-0.08
C[C@@H](CCC(=O)NCc1ccc(C#N)cc1)N1CCCC1,-7%,0.86
CCc1nc(NCCC(=O)NCc2ccccc2)c2cc(Cl)cc(Cl)c2n1,-14%,1.32
CC(OC(=O)CCC1NC(=O)NC1=O)C(=O)Nc1ccccc1 (stereo unspecified),-3%,0.47
Clc1cccc2c1CC[C@@H]2N1CCC(n2cncn2)CC1,-18%,2.15
Cc1ccc(CCNc2ncnc3c(-c4ccccc4)noc23)cc1,7%,-1.38
CC1(C)CC[C@H](CNC(=O)NCc2cnccn2)O1,-16%,1.74
C[C@@H]1C[C@H](O)CN(C(=O)NC(c2cncc(Br)c2)C2CC2)C1 (stereo partly specified),14%,-1.79
O=C(CCc1ccccc1)N1CCCCC[C@H]1c1nnc(-c2ccccc2)o1,-14%,2.62
Cc1noc(C(F)F)c1C(=O)N[C@H]1C[C@H](C)S(=O)(=O)c2sccc21,-8%,1.21
Cc1ccc(Nc2nc(=O)[nH]nc2C)cc1N(C)C,-6%,0.79
O=C(Cn1c(=O)n(CCc2ccccc2)c(=O)c2ccccc21)NCc1ccc(F)cc1,7%,-0.96
CC(NC(=O)[C@H]1C[C@@H]1c1cccc(Cl)c1)c1nc[nH]n1 (stereo partly specified),-20%,2.55
